Results from patent US5206254A, “β-carbonyl-carboxyamides of 1,3-thiazolidines” (Boehringer Mannheim Italia S.p.A., priority 1988, dated 1993).

System: cough strokes induced by exposure to citric acid aerosol
Assay: Protection against cough strokes induced by 7.5% citric acid aerosol (Charlier et al.)
Details: for long lasting percent reduction (of cough strokes): subcutaneous, 60 mg/Kg; for Percent reduction cough strokes: 30 mg/Kg os, exposure one hour after drug

Compound	ED50 (Cavia porcellus, po)	long lasting percent reduction (of cough strokes)	Percent reduction cough strokes	ED50 (os, citric acid aerosol (Table I))
COc1ccc2c3c1O[C@H]1[C@@H](O)C=C[C@H]4[C@@H](C2)N(C)CC[C@@]341 [Codeine phosphate, reference compound]	30 mg/kg			
COc1ccccc1OCC1SCCN1C(=O)CC(=O)O (racemic) [Compound 10, (R,S)-2-(2-methoxy-phenoxymethyl)-3-carboxyacetyl-1,3-thiazolidine]		83%		
(R,S)-2-(2-methoxy-phenoxymethyl)-3-ethoxycarbonylacetyl-1,3-thiazolidine [Compound 7]		90%	51%	
COc1ccccc1OCC1SCCN1C(=O)CC(=O)NCc1cccnc1 (stereo not shown) [Compound 14]	14 mg/kg			
(R,S)-2-(2-methoxy-phenoxymethyl)-3-(3-oxo-butanoyl)-1,3-thiazolidine [Compound 6]			45%	30 mg/kg
